B1: TEV protease; numbered along this chain (parent)
chain: MGESLFKGPRDYNPISSSICHLTNESDGHTTSLYGIGFGPFIITNKHLFRRNNGTLVVQSLHGVFKVKDTTTLQQHLVDGRDMIIIRMPKDFPPFPQKLKFREPQREERICLVTTNFQTKSMSSMVSDTSCTFPSGDGIFWKHWIQTKDGQCGSPLVSTRDGFIVGIHSASNFTNTNNYFTSVPKNFMELLTNQEAQQWVSGWRLNADSVLWGGHKVFMVKPEEPFQPVKEATQL

Some of the results follow. Sequences were assembled here from the parent chain. Values near 0.05 are background.

Variants of B1 are the subject of this experiment. The experiment is described as follows: raw area under fraction-flipped curve 0-4 h after induction (AUC4h, not background-subtracted), DNA-recorder readout of cleavage of the substrate (dimensionless); higher = more cleavage of the substrate by the protease variant. The note with it: temperature: 34 °C; time window: 0-4 h after rhamnose induction. As to the method:
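In vivo DNA recorder in E. coli TOP10(DE3) ΔrhaA at 34 °C. Each TEVp single-site mutant (parent TEVp 0) is paired with a single-site variant of the 7-mer TEVs (canonical ENLYFQ|S). The substrate sits between flexible linkers in a Bxb1-sfGFP-TEVs-SsrA fusion, so cleavage stabilises Bxb1 and speeds flipping of a recombination array, read by NGS. The value is the raw area under the fraction-flipped curve over 0-4 h after rhamnose induction (AUC4h), with ≥20 reads per time point. It is not background-subtracted; inactive controls average about 0.047.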
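Also: Bxb1 expression induced with 0.2% (w/v) L-rhamnose at OD600 near 0.5, cultures sampled hourly, flipped fraction per protease–substrate barcode pair counted by paired-end Illumina sequencing.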

In the case of MGESLFKGPRDYNPISSSICHLTNESDGHTTSLYGIGFGPFIITNKHLFRRNNGTLVVQSLHGVFKVKDTTTLQQHLVDGRDMIIIRMPKDFPPFPQKLKFREPQREERICLVTTNFQTKSMSSMVSDTSCTFPSGDGIFWKHWIQTKDGQEGSPLVSTRDGFIVGIHSASNFTNTNNYFTSVPKNFMELLTNQEAQQWVSGWRLNADSVLWGGHKVFMVKPEEPFQPVKEATQL [C152E], the “area with substrate ENAYFQS” value turned out to be 0.0521, the “area with substrate ENCYFQS” value was 0.0584, the “area with substrate ENDYFQS” value was 0.0645 and the “area with substrate ENEYFQS” value came out at 0.0716. The “area with substrate ENGYFQS” value was 0.0701, the “area with substrate ENHYFQS” value worked out at 0.0473, the “area with substrate ENIYFQS” value amounted to 0.0596 and the “area with substrate ENMYFQS” value was 0.0638. Also, the “area with substrate ENNYFQS” value was determined as 0.0621, the “area with substrate ENPYFQS” value stood at 0.0449, the “area with substrate ENQYFQS” value was found to be 0.0584 and the “area with substrate ENRYFQS” value is 0.0617. Moreover, the “area with substrate ENSYFQS” value came out at 0.0641, the “area with substrate ENTYFQS” value was determined as 0.0566, the “area with substrate ENVYFQS” value was found to be 0.0422 and the “area with substrate ENYYFQS” value came out at 0.0421.
MGESLFKGPRDYNPISSSICHLTNESDGHTTSLYGIGFGPFIITNKHLFRRNNGTLVVQSLHGVFKVKDTTTLQQHLVDGRDMIIIRMPKDFPPFPQKLKFREPQREERICLVTTNFQTKSMSSMVSDTSCTFPSGDGIFWKHWIQTKDGQDGSPLVSTRDGFIVGIHSASNFTNTNNYFTSVPKNFMELLTNQEAQQWVSGWRLNADSVLWGGHKVFMVKPEEPFQPVKEATQL [C152D]: the “area with substrate ENAYFQS” value was determined as 0.0461, the “area with substrate ENCYFQS” value turned out to be 0.0554, the “area with substrate ENDYFQS” value came to 0.0715 and the “area with substrate ENEYFQS” value worked out at 0.0879. In addition, the “area with substrate ENFYFQS” value amounted to 0.064, the “area with substrate ENGYFQS” value worked out at 0.0735, the “area with substrate ENKYFQS” value amounted to 0.058 and the “area with substrate ENMYFQS” value was 0.0605. The “area with substrate ENPYFQS” value was 0.0757, the “area with substrate ENQYFQS” value turned out to be 0.0701, the “area with substrate ENRYFQS” value was determined as 0.0545 and the “area with substrate ENSYFQS” value amounted to 0.0599. Moreover, the “area with substrate ENWYFQS” value was found to be 0.018.
As to MGESLFKGPRDYNPISSSICHLTNESDGHTTSLYGIGFGPFIITNKHLFRRNNGTLVVQSLHGVFKVKDTTTLQQHLVDGRDMIIIRMPKDFPPFPQKLKFREPQREERICLVTTNFQTKSMSSMVSDTSCTFPSGDGIFWKHSIQTKDGQCGSPLVSTRDGFIVGIHSASNFTNTNNYFTSVPKNFMELLTNQEAQQWVSGWRLNADSVLWGGHKVFMVKPEEPFQPVKEATQL [W144S], the “area with substrate ENAYFQS” value was 0.0593, the “area with substrate ENCYFQS” value stood at 0.0663, the “area with substrate ENDYFQS” value came out at 0.0568 and the “area with substrate ENFYFQS” value came to 0.0798. Besides, the “area with substrate ENGYFQS” value is 0.067, the “area with substrate ENHYFQS” value was found to be 0.0713, the “area with substrate ENPYFQS” value worked out at 0.0572 and the “area with substrate ENQYFQS” value came out at 0.0611. The “area with substrate ENSYFQS” value is 0.0647, the “area with substrate ENTYFQS” value came to 0.0667 and the “area with substrate ENVYFQS” value came to 0.0711.
Turning to MGESLFKGPRDYNPISSSICHLTNESDGHTTSLYGIGFGPFIITNKHLFRRNNGTLVVQSLHGVFKVKDTTTLQQHLVDGRDMIIIRMPKDFPPFPQKLKFREPQREERICLVTTNFQTKSMSSMVSDTSCTFPSGDGIFWKHYIQTKDGQCGSPLVSTRDGFIVGIHSASNFTNTNNYFTSVPKNFMELLTNQEAQQWVSGWRLNADSVLWGGHKVFMVKPEEPFQPVKEATQL [W144Y], the “area with substrate ENAYFQS” value worked out at 0.0604, the “area with substrate ENCYFQS” value was 0.0651, the “area with substrate ENDYFQS” value was 0.0684 and the “area with substrate ENEYFQS” value worked out at 0.0564. The “area with substrate ENFYFQS” value worked out at 0.0503, the “area with substrate ENGYFQS” value came out at 0.0606, the “area with substrate ENHYFQS” value turned out to be 0.0719 and the “area with substrate ENIYFQS” value worked out at 0.118. The “area with substrate ENMYFQS” value was determined as 0.0711, the “area with substrate ENNYFQS” value stood at 0.053, the “area with substrate ENPYFQS” value stood at 0.0732 and the “area with substrate ENQYFQS” value turned out to be 0.0594. Further, the “area with substrate ENRYFQS” value was 0.0541, the “area with substrate ENSYFQS” value was found to be 0.08, the “area with substrate ENTYFQS” value worked out at 0.0753 and the “area with substrate ENVYFQS” value turned out to be 0.0773. The “area with substrate ENYYFQS” value amounted to 0.0855.
On to MGESLFKGPRDYNPISSSICHLTNESDGHTTSLYGIGFGPFIITNKHLFRRNNGTLVVQSLHGVFKVKDTTTLQQHLVDGRDMIIIRMPKDFPPFPQKLKFREPQREERICLVTTNFQTKSMSSMVSDTSCTFPSGDGIFWKHRIQTKDGQCGSPLVSTRDGFIVGIHSASNFTNTNNYFTSVPKNFMELLTNQEAQQWVSGWRLNADSVLWGGHKVFMVKPEEPFQPVKEATQL [W144R], for which the “area with substrate ENAYFQS” value is 0.0526, the “area with substrate ENCYFQS” value was determined as 0.0571, the “area with substrate ENDYFQS” value was 0.0665 and the “area with substrate ENEYFQS” value is 0.067. Further, the “area with substrate ENFYFQS” value turned out to be 0.0696, the “area with substrate ENGYFQS” value was 0.0677, the “area with substrate ENHYFQS” value came out at 0.0751 and the “area with substrate ENKYFQS” value amounted to 0.038. The “area with substrate ENQYFQS” value was determined as 0.0631, the “area with substrate ENRYFQS” value is 0.06, the “area with substrate ENSYFQS” value stood at 0.064 and the “area with substrate ENVYFQS” value stood at 0.075.
With MGESLFKGPRDYNPISSSICHLTNESDGHTTSLYGIGFGPFIITNKHLFRRNNGTLVVQSLHGVFKVKDTTTLQQHLVDGRDMIIIRMPKDFPPFPQKLKFREPQREERICLVTTNFQTKSMSSMVSDTSCTFPSGDGIFWKHVIQTKDGQCGSPLVSTRDGFIVGIHSASNFTNTNNYFTSVPKNFMELLTNQEAQQWVSGWRLNADSVLWGGHKVFMVKPEEPFQPVKEATQL [W144V], the “area with substrate ENAYFQS” value was found to be 0.0604, the “area with substrate ENCYFQS” value came to 0.0676, the “area with substrate ENDYFQS” value came to 0.0606 and the “area with substrate ENEYFQS” value was determined as 0.0686. For the same variant, the “area with substrate ENFYFQS” value amounted to 0.0692, the “area with substrate ENGYFQS” value worked out at 0.0642, the “area with substrate ENHYFQS” value amounted to 0.0667 and the “area with substrate ENIYFQS” value is 0.0852. The “area with substrate ENKYFQS” value stood at 0.0588, the “area with substrate ENNYFQS” value amounted to 0.056, the “area with substrate ENQYFQS” value came to 0.0633 and the “area with substrate ENSYFQS” value stood at 0.0639. The “area with substrate ENTYFQS” value was 0.0765, the “area with substrate ENVYFQS” value stood at 0.0665 and the “area with substrate ENWYFQS” value was 0.0634.
Regarding MGESLFKGPRDYNPISSSICHLTNESDGHTTSLYGIGFGPFIITNKHLFRRNNGTLVVQSLHGVFKVKDTTTLQQHLVDGRDMIIIRMPKDFPPFPQKLKFREPQREERICLVTTNFQTKSMSSMVSDTSCTFPSGDGIFWKHNIQTKDGQCGSPLVSTRDGFIVGIHSASNFTNTNNYFTSVPKNFMELLTNQEAQQWVSGWRLNADSVLWGGHKVFMVKPEEPFQPVKEATQL [W144N], the “area with substrate ENAYFQS” value was 0.06, the “area with substrate ENCYFQS” value turned out to be 0.0882, the “area with substrate ENEYFQS” value turned out to be 0.0592 and the “area with substrate ENGYFQS” value amounted to 0.0637. Moreover, the “area with substrate ENHYFQS” value amounted to 0.0678, the “area with substrate ENIYFQS” value was 0.0763, the “area with substrate ENMYFQS” value is 0.078 and the “area with substrate ENQYFQS” value worked out at 0.0585. In addition, the “area with substrate ENRYFQS” value was 0.0521, the “area with substrate ENSYFQS” value is 0.0653 and the “area with substrate ENTYFQS” value is 0.0733.
As for MGESLFKGPRDYNPISSSICHLTNESDGHTTSLYGIGFGPFIITNKHLFRRNNGTLVVQSLHGVFKVKDTTTLQQHLVDGRDMIIIRMPKDFPPFPQKLKFREPQREERICLVTTNFQTKSMSSMVSDTSCTFPSGDGIFWKHPIQTKDGQCGSPLVSTRDGFIVGIHSASNFTNTNNYFTSVPKNFMELLTNQEAQQWVSGWRLNADSVLWGGHKVFMVKPEEPFQPVKEATQL [W144P], the “area with substrate ENAYFQS” value was determined as 0.0204, the “area with substrate ENCYFQS” value worked out at 0.0549, the “area with substrate ENDYFQS” value is 0.0643 and the “area with substrate ENEYFQS” value worked out at 0.0567. The “area with substrate ENFYFQS” value was 0.0539, the “area with substrate ENKYFQS” value was determined as 0.063, the “area with substrate ENNYFQS” value stood at 0.0692 and the “area with substrate ENPYFQS” value was found to be 0.0677. For the same variant, the “area with substrate ENQYFQS” value was determined as 0.0587, the “area with substrate ENRYFQS” value is 0.0613, the “area with substrate ENSYFQS” value worked out at 0.0641 and the “area with substrate ENTYFQS” value stood at 0.0583. The “area with substrate ENWYFQS” value stood at 0.0464 and the “area with substrate ENYYFQS” value amounted to 0.0642.
With MGESLFKGPRDYNPISSSICHLTNESDGHTTSLYGIGFGPFIITNKHLFRRNNGTLVVQSLHGVFKVKDTTTLQQHLVDGRDMIIIRMPKDFPPFPQKLKFREPQREERICLVTTNFQTKSMSSMVSDTSCTFPSGDGIFWKHWIQTADGQCGSPLVSTRDGFIVGIHSASNFTNTNNYFTSVPKNFMELLTNQEAQQWVSGWRLNADSVLWGGHKVFMVKPEEPFQPVKEATQL [K148A], the “area with substrate ENAYFQS” value is 0.0533, the “area with substrate ENCYFQS” value worked out at 0.0647, the “area with substrate ENDYFQS” value worked out at 0.0536 and the “area with substrate ENEYFQS” value worked out at 0.0642. Moreover, the “area with substrate ENFYFQS” value came to 0.0545, the “area with substrate ENGYFQS” value amounted to 0.0621, the “area with substrate ENHYFQS” value was 0.0639 and the “area with substrate ENIYFQS” value is 0.112. Besides, the “area with substrate ENMYFQS” value worked out at 0.0664, the “area with substrate ENNYFQS” value came to 0.0605, the “area with substrate ENPYFQS” value came to 0.0608 and the “area with substrate ENQYFQS” value was 0.0607. In addition, the “area with substrate ENRYFQS” value amounted to 0.0581, the “area with substrate ENSYFQS” value stood at 0.0512, the “area with substrate ENTYFQS” value is 0.0772 and the “area with substrate ENVYFQS” value came out at 0.0773. In addition, the “area with substrate ENWYFQS” value is 0.0871 and the “area with substrate ENYYFQS” value was found to be 0.0587.

Values taken from the supplement of paper PMC12217912.
